Measurements published in article PMC6919601, “Identification of Plasmodium dipeptidyl aminopeptidase allosteric inhibitors by high throughput screening” (PLoS ONE, 2019).
Screen size: about 110,000 compounds; about 230 (0.21%) showed an effect of 50% or more. The list shows a part of the results.
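Note: 30 min substrate incubation versus DMSO and 10 µM JCP410 controls.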

These molecules were tested against DPAP1 (Plasmodium falciparum, UniProt Q8IIJ9) (assay: primary screen, percent inhibition; read by cleavage of a fluorogenic dipeptide substrate; higher = more effect of the substance).
Chain of DPAP1 (Q8IIJ9 whole entry, looked up): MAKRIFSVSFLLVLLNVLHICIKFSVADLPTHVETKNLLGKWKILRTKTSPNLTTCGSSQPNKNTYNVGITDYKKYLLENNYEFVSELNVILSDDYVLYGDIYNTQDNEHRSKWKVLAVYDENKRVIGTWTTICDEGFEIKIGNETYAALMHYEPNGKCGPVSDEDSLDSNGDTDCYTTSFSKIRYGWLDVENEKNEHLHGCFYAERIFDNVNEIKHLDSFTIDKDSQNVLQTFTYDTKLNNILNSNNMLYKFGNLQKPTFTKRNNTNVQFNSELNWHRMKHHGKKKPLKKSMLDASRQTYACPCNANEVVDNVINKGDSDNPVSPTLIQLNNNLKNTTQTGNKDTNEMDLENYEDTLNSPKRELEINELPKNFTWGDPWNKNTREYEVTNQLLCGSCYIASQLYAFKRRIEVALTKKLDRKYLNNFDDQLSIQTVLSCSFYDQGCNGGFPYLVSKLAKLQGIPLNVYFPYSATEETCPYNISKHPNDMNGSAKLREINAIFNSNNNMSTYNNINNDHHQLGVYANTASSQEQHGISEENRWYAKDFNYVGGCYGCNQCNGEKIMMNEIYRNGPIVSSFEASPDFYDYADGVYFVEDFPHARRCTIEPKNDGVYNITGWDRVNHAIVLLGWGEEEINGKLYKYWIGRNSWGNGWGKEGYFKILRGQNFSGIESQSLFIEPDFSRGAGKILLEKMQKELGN
Parameters: species or system P. falciparum D10 trophozoite lysates; single well
With `COc1ccc(CC(=O)n2nc(-c3ccco3)nc2NCc2cccs2)cc1` the “% Inhibition @ 10 uM” value was 8.02%.
`COc1ccc(S(=O)(=O)N(CC(=O)N2CCc3ccccc3C2)c2ccccc2)cc1` was tested, and the “% Inhibition @ 10 uM” value was 5.51%.
With `CCOC(=O)c1c(C)oc2ncnc(NC(C)c3ccccc3)c12` (stereo not drawn) the “% Inhibition @ 10 uM” value was -7.65%.
`O=[N+]([O-])c1ccc(Cl)c(CN2CCCC(O)C2)c1` (stereo not drawn) was tested, and the “% Inhibition @ 10 uM” value was 3.1%.
For `Cc1ccc(-c2nnc3sc(COc4ccc(Br)cc4)nn23)cc1`, the “% Inhibition @ 10 uM” value was 6.01%.
With `CCSc1nc2cc([N+](=O)[O-])ccc2[nH]1` the “% Inhibition @ 10 uM” value was 5.56%.
With `Cc1nn(C)cc1CNC(=O)c1nn2c(c1Cl)NC(c1cccs1)CC2C(F)(F)F` (stereo not drawn) the “% Inhibition @ 10 uM” value was 2.45%.
`O=c1cc(O)nc2ccccn12` was tested, and the “% Inhibition @ 10 uM” value was 0.675%.
`Cc1ccc(C2NCCc3[nH]cnc32)cc1` (stereo not drawn) was tested, and the “% Inhibition @ 10 uM” value was 0.774%.
`COc1ccc(CNc2ccc(C)cc2)c2ccccc12` was tested, and the “% Inhibition @ 10 uM” value was -2.21%.
In the case of `Oc1nc(/C=C/c2ccccc2)nc2sc3c(c12)CCCC3`, the “% Inhibition @ 10 uM” value is reported as -1.85%.
For `CC(=O)c1ccc(N2CCN(Cc3cccc(C(F)(F)F)c3)CC2)cc1`, the “% Inhibition @ 10 uM” value was -1.48%.
With `CCC(=O)NC(c1ccccc1)c1nc2ccccc2[nH]1` (stereo not drawn) the “% Inhibition @ 10 uM” value was -0.58%.
In the case of `Cc1cc(=O)n2nc(N3CCCC3C(=O)NCCCN3CCCC3=O)sc2n1` (stereo not drawn), the “% Inhibition @ 10 uM” value is reported as 2.8%.
With `COc1ccc(CN2CCN(c3ccc([N+](=O)[O-])cc3)CC2)cc1C` the “% Inhibition @ 10 uM” value was 0.317%.
With `O=C(CCc1nc2cccnc2n1Cc1cccs1)NCCc1c[nH]c2ccccc12` the “% Inhibition @ 10 uM” value was 3.2%.
With `COc1cccc(C(=O)N2CCN(Cc3ccc(SC)cc3)CC2)c1` the “% Inhibition @ 10 uM” value was 4%.
`CCOc1ccc(Oc2cc(N)ccn2)cc1` was tested, and the “% Inhibition @ 10 uM” value was 1.7%.
For `CC1(C)CC(=O)c2cc(OCC(=O)N3CCc4ccccc4C3)ccc2O1`, the “% Inhibition @ 10 uM” value was -3.12%.
In the case of `CCOc1ccc(C(O)c2nccn2C)cc1` (stereo not drawn), the “% Inhibition @ 10 uM” value is reported as -0.0804%.
`CC(C)(C)c1ccc(NC(=O)CSc2nc3nncc-3c(O)n2-c2ccccc2)cc1` was tested, and the “% Inhibition @ 10 uM” value was 0.726%.
With `COC(=O)c1sccc1NC(=S)N1CCC(Cc2ccccc2)CC1` the “% Inhibition @ 10 uM” value was 2.83%.
In the case of `O=C(NCc1ccccn1)C1CCN(S(=O)(=O)c2ccc(Br)cc2)CC1`, the “% Inhibition @ 10 uM” value is reported as 1.57%.
`CCc1nn(-c2nc3c(C)cccc3s2)c(N)c1C#N` was tested, and the “% Inhibition @ 10 uM” value was 1.57%.
`COc1cccc(-c2nn3c(C)nnc3s2)c1` was tested, and the “% Inhibition @ 10 uM” value was 3.88%.
For `Cc1nn(C(C)C(=O)NCCC(C)C)c(=O)c2c1sc1ccccc12` (stereo not drawn), the “% Inhibition @ 10 uM” value was -7.19%.
`CCc1nn(C(CC)C(=O)NCc2cc(Br)ccc2OC)c(=O)c2cc3occc3n12` (stereo not drawn) was tested, and the “% Inhibition @ 10 uM” value was 3.11%.
With `Cc1noc(NS(=O)(=O)c2ccc(NC(=O)c3ccc(Cl)cc3)cc2)c1C` the “% Inhibition @ 10 uM” value was -8.95%.
With `CCc1nc2ccccc2n1CC(O)COCC1CC=CCC1` (stereo not drawn) the “% Inhibition @ 10 uM” value was 9.32%.
With `Cc1cc(Cl)ccc1OC(C)C(=O)Nc1nc(C)c(C)s1` (stereo not drawn) the “% Inhibition @ 10 uM” value was -4.59%.
`O=C(CSc1c2c(nc3cc(Cl)ccc13)CCCC2)N1CCCC1` was tested, and the “% Inhibition @ 10 uM” value was -7.13%.
In the case of `CC1=NN(C(=O)c2ccccc2F)C(O)(c2ccccc2)C1` (stereo not drawn), the “% Inhibition @ 10 uM” value is reported as -5.31%.
In the case of `COc1ccc(C2C(C#N)=C(N)N(c3ccc(Cl)cc3)C3=C2C(=O)CCC3)cc1OC` (stereo not drawn), the “% Inhibition @ 10 uM” value is reported as -2.21%.
With `CCOCC(=O)NCCNC(=O)C(NC(=O)C1CCC(C)CC1)C(C)C` (stereo not drawn) the “% Inhibition @ 10 uM” value was -5.67%.
`Cc1coc2cc3oc(=O)c(CC(=O)NCc4ccco4)c(C)c3cc12` was tested, and the “% Inhibition @ 10 uM” value was 4.13%.
`Cc1ccc(CCNC(=O)c2oc(=O)c3ccccc3c2-c2ccccc2)cc1` was tested, and the “% Inhibition @ 10 uM” value was 0.208%.
In the case of `Cc1ccc(NC(=O)c2ccc(CN3CCOCC3)cc2)cc1C`, the “% Inhibition @ 10 uM” value is reported as 0.643%.
With `Cc1ccc(OCC(=O)O/N=C(\N)c2ccccc2)c(Br)c1` the “% Inhibition @ 10 uM” value was 0.484%.
For `COc1ccc(CN2CCC(N3CC(C)OC(C)C3)CC2)cc1OC` (stereo not drawn), the “% Inhibition @ 10 uM” value was 0.565%.
For `CCOC(=O)C(C#N)/C(S)=N/c1ccccc1` (stereo not drawn), the “% Inhibition @ 10 uM” value was 1.27%.
With `C=CCn1c(-c2nonc2NC(C)=O)nc2ccccc21` the “% Inhibition @ 10 uM” value was -2.16%.
In the case of `COc1ccc(S(=O)(=O)N2CCCC2C(=O)NCc2ccccc2Cl)cc1` (stereo not drawn), the “% Inhibition @ 10 uM” value is reported as 2.19%.
With `Cc1ccccc1-c1nnc(NC(=O)C(=O)c2c[nH]c3ccccc23)s1` the “% Inhibition @ 10 uM” value was 3.92%.
For `CCCc1nc2ccccc2n2c(-c3ccccc3)c3c(=O)n(C)c(=O)n(C)c3c12`, the “% Inhibition @ 10 uM” value was -1.65%.
For `CCN(CC)CCOC(c1ccccc1)c1ccccc1`, the “% Inhibition @ 10 uM” value was -2.62%.
With `COc1ccc(S(=O)(=O)N2CCC(C(=O)Nc3c(F)cccc3F)CC2)cc1` the “% Inhibition @ 10 uM” value was -2.22%.
`COc1cccc(C(NC(=O)c2ccccc2)c2ccc3cccnc3c2O)c1` (stereo not drawn) was tested, and the “% Inhibition @ 10 uM” value was 6.22%.
In the case of `CN1CCN(C(=O)N2c3ccccc3CCc3ccccc32)CC1`, the “% Inhibition @ 10 uM” value is reported as -0.969%.
For `Cc1ccc(-c2nnc3sc(Cc4ccc(Cl)cc4)nn23)cc1`, the “% Inhibition @ 10 uM” value was 1.25%.
In the case of `CCOc1ccccc1N1C(=O)CC(N2CCC(C(N)=O)CC2)C1=O` (stereo not drawn), the “% Inhibition @ 10 uM” value is reported as 0.583%.
In the case of `CCc1ccc(-c2nc(CS(=O)CC(=O)NC3CCCCC3C)c(C)o2)cc1` (stereo not drawn), the “% Inhibition @ 10 uM” value is reported as 0.718%.
With `COc1ccc(C(=O)Nc2ccncc2)cc1` the “% Inhibition @ 10 uM” value was -1.96%.
`COc1ccc(C(=O)/C=C/c2cccc3ccccc23)c(OC)c1` was tested, and the “% Inhibition @ 10 uM” value was -2.28%.
For `CCOc1ccccc1N1CCN(Cc2ccc3c(c2)OCO3)CC1`, the “% Inhibition @ 10 uM” value was -3.03%.
In the case of `O=C1c2ccc(-c3nc4ccccc4s3)cc2C(=O)N1Cc1ccncc1`, the “% Inhibition @ 10 uM” value is reported as 3.1%.
For `O=S(=O)(NCCOc1ccccc1)c1ccc(CCn2cnnn2)cc1`, the “% Inhibition @ 10 uM” value was -0.403%.
With `COc1ccc(Cn2c(C(=O)O)c(CNCc3ccc(C)o3)c3ccccc32)cc1` the “% Inhibition @ 10 uM” value was -1.09%.
`COc1cccc(-c2nc(CSCC(=O)NCC3CCCO3)c(C)o2)c1` (stereo not drawn) was tested, and the “% Inhibition @ 10 uM” value was 3.99%.
With `CCOc1ccc2nc(NC(=O)C3CCN(c4ncnc5c4nc4n5CCCCC4)CC3)sc2c1` the “% Inhibition @ 10 uM” value was 4.39%.
`Cc1cccc(N2CCN(C(=O)Nc3cccc(Cl)c3)CC2)c1C` was tested, and the “% Inhibition @ 10 uM” value was -3.26%.
In the case of `O=C(Cc1c(C(=O)O)[nH]c2ccc(Cl)cc12)NCC1COc2ccccc2O1` (stereo not drawn), the “% Inhibition @ 10 uM” value is reported as 5.1%.
With `CC1(C)CC(N2C(=O)OC3(CC(C)(C)NC(C)(C)C3)C2(C)O)CC(C)(C)N1` (stereo not drawn) the “% Inhibition @ 10 uM” value was 1.43%.
`COc1cc(CN(C)C2CCN(C)CC2)cc2c1OCO2` was tested, and the “% Inhibition @ 10 uM” value was 3.35%.
`COc1cc(NCC2CCCCC2)cc(OC)c1` was tested, and the “% Inhibition @ 10 uM” value was -3.27%.
`Cn1c(=O)c2c(nc3n2CCCN3C2CCC(O)CC2)n(C)c1=O` (stereo not drawn) was tested, and the “% Inhibition @ 10 uM” value was -2.86%.
With `CN1CCN(C2CCN(Cc3ccccc3)CC2)CC1` the “% Inhibition @ 10 uM” value was -3.6%.
